Assay results from PubChem BioAssay AID485364 (National Center for Advancing Translational Sciences (NCATS), 2010).
Out of some 360,000 compounds screened, about 11,000 (3.1%) were called active. The shares of active, inactive and inconclusive entries below differ from those in the screen. The call rests on the fitted dose curve; in most records, active means well fitted inhibition curve with a large enough effect; inconclusive means small, poorly fitted or top-dose-only effect; inactive means no such curve, though single readings can be large or run the other way. Potencies of inconclusive entries are left out as doubtful fits.

Biological target: Schistosoma mansoni thioredoxin glutathione reductase (TGR) (UniProt Q962Y6)
Assay: qHTS Assay for the Inhibitors of Schistosoma Mansoni Peroxiredoxins; further: nearly all actives have a fitted effect of over 60% in size
Conditions: purified TGR, DTNB reduction, TNB absorbance 405 nm; activity change, negative = inhibition: at 114 µM (top of the series) unless noted
In short: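 First, TGR (20 nM dispensed) and NADPH were mixed with compound. Second, a 15 min room-temperature incubation followed. Third, further NADPH and then DTNB were added to start the reaction. Finally, TNB absorbance was monitored kinetically.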
On the % scale 0 is the no-effect control and ±100 the full control effect; potency means the concentration at half of the fitted maximal effect; tags describe the fitted curve by direction and shape.

SMILES	Potency	activity change, negative = inhibition
COc1cc(OC)cc(C(=O)N2CC(=O)Nc3ccccc32)c1	inconclusive [inhibitor, partial curve, poor fit]	
CC(=O)C1=C(O)C(=O)N(Cc2ccco2)C1c1ccc2c(c1)OCO2 (configuration not stated)	inconclusive [inhibitor, partial curve]	
CN(C)c1ccc(CN(C(=O)c2ccc(Cl)c([N+](=O)[O-])c2)C2CCS(=O)(=O)C2)cc1 (configuration not stated)	inconclusive [inhibitor, partial curve]	
CCCCC(=O)NC(=S)Nc1cccc(NC(=O)c2ccco2)c1	inconclusive [inhibitor, partial curve]	
COc1ccc(C(C[N+](=O)[O-])n2nc(C)cc2C)cc1 (configuration not stated)	inconclusive [inhibitor, partial curve]	
CCOc1cc(-n2cnnn2)c(OCC)cc1NC(=O)c1cnccn1	inactive	
CCCN(CC(=O)Nc1ccccc1C)C(=O)C1CC(=O)N(c2cccc(C)c2C)C1 (configuration not stated)	inactive	
N#CC(C(=O)Nc1ccc(Cl)c(Cl)c1)=C1Nc2ccccc2N1	inactive	
O=C(C1CCN(S(=O)(=O)c2ccc(F)cc2)CC1)N1CC=C(c2ccccc2)CC1	inconclusive [inhibitor, partial curve]	
Cc1ccnc(NC(c2ccccc2F)c2ccc3cccnc3c2O)c1 (configuration not stated)	active: 2.24 µM	
Cc1ccc(N2C(=O)C3C4C=CC(CNC(=S)Nc5cccc(Cl)c5)(O4)C3C2=O)cc1 (configuration not stated)	active: 3.98 µM	
COc1ccc([N+](=O)[O-])cc1NC(=O)c1ccc(Br)s1	inconclusive [inhibitor, single point]	
C/C(CC(=O)Nc1cc(Cl)ccc1C)=N\NC(N)=O	inactive	
COc1ccc(S(=O)(=O)N2CCOCC2)cc1NC(=O)CN1CCCCCC1	inconclusive [inhibitor, single point]	
Cc1ccc(Cl)cc1NC(=O)Cn1nc2c(cc1=O)CC(C)CC2 (configuration not stated)	inactive	
Oc1ccc2ccccc2c1CNc1ccc(Br)cn1	inactive	
C[C@H](NC(=O)OC(C)(C)C)C(=O)N/N=C/c1cccc2nccnc12	inactive	
CC1(C)C(C=C(Cl)Cl)C1C(=O)N/N=C/c1ccccc1F (configuration not stated)	inactive	
COc1ccccc1OCCC(=O)OCC(=O)c1c(N)n(C)c(=O)n(C)c1=O	inconclusive [inhibitor, partial curve]	
N#C/C(=C\c1cccc([N+](=O)[O-])c1)C(=O)Nc1cccnc1	inactive	
COc1ccc(NC(=O)CCS(=O)(=O)c2cc(Br)cc3c2N(C(C)=O)CC3)c(OC)c1	inconclusive [inhibitor, partial curve]	
Nc1cc2nsnc2cc1Br	inconclusive [inhibitor, single point]	
COc1ccc(C(=O)Nc2cccnc2)cc1OC	inconclusive [inhibitor, single point]	
CCC(=O)Nc1ccccc1Sc1ncnc2scc(-c3ccccc3)c12	inactive	
CC[C@H](C)[C@@H](NC(=O)O[C@@H]1C(=O)c2cc(Br)ccc2O[C@H]1c1ccc2c(c1)OCO2)C(=O)OC	inactive	
Nc1sc2c(c1C(=O)NC1CCS(=O)(=O)C1)CCC2 (configuration not stated)	inconclusive [inhibitor, partial curve]	

SMILES	Potency	activity change, negative = inhibition
COc1ccccc1C1C(C(N)=O)=C(C)Nc2nc(SCc3ccccc3F)nn21 (configuration not stated)	inactive	
CCn1c(=O)n(CC)c2cc(N3CCCC3)c(NC(=O)c3ccccc3Br)cc21	inconclusive [inhibitor, partial curve]	
O=C(CSc1nnc(C2CC2)n1Cc1ccccc1)c1ccc(S(=O)(=O)N2CCOCC2)cc1	inconclusive [inhibitor, partial curve]	
CN1CC[C@@]23CCCC[C@@H]2[C@@H]1Cc1ccc(O)cc13	inconclusive [inhibitor, single point]	
Cc1cc(C(=O)OCC(=O)Nc2nc(-c3ccccc3)cs2)c(C)o1		inactive: 7.78% [at 11.4 µM]
CCC12CN3CC(C)(CN(C1)C3c1c(C)[nH]c3ccccc13)C2=O (configuration not stated)	inactive	
CCCc1cc(NCCCO)n2c(nc3ccccc32)c1C#N	inactive	
Cc1ccc(S(=O)(=O)N/N=C2/CC(=O)CC(C)(C)C2)cc1[N+](=O)[O-]	inconclusive [inhibitor, full curve]	
CCSc1nc2sc3c(c2c(=O)n1-c1ccccc1)CCN(C(C)C)C3	inconclusive [inhibitor, partial curve]	
COc1ccccc1-n1c(O)c(C=NCCN2CCNCC2)c(=O)[nH]c1=O	inconclusive [inhibitor, partial curve]	
S=C(NCc1cccnc1)Nc1cccc(Cl)c1	active: 31.6 µM	
CCOC(=O)c1nnc(-c2cccs2)nc1Oc1ccccc1C(=O)OC	inconclusive [inhibitor, partial curve]	
COCCNC(=O)Nc1ccc2nc(C)sc2c1	inactive	
O=C(Nc1ccon1)c1sc2cc(F)ccc2c1Cl	inactive	
Cc1cccc(N2C(=O)C(Cl)=C(Nc3c(C)n(C)n(-c4ccccc4)c3=O)C2=O)c1C	active: 8.91 µM	
CCCn1c(N)c(C(c2ccc(C(=O)OC)cc2)N2CCN(c3ccccc3)CC2)c(=O)[nH]c1=O (configuration not stated)	inconclusive [inhibitor, partial curve]	
O=C(Nc1ncnc2sc3c(c12)CCC3)c1ccco1	inconclusive [inhibitor, partial curve, poor fit]	
COC(CN(C)C(C(=O)NC1CCCCC1)c1ccccc1)OC (configuration not stated)	inconclusive [inhibitor, single point]	
COc1ccccc1CN(Cc1cc2c(C)ccc(C)c2[nH]c1=O)Cc1nnnn1Cc1ccco1	active: 44.7 µM	
O/N=C/c1ccc2cccc(O)c2n1	inactive	
CN1CCCN(S(=O)(=O)c2ccc3ccccc3c2)CC1	active: 44.7 µM	
C=CCOC(=O)/C=C/C(=O)NC(N)=O	active: 1.26 µM	
Cc1cccc(Cl)c1OCCCN1CCOCC1	inactive	
COc1cccc2cc(C(=O)C3=C(O)C(=O)N(CCN4CCOCC4)C3c3ccc(C(C)(C)C)cc3)oc12 (configuration not stated)	inconclusive [inhibitor, partial curve]	
O=C(NCc1cccnc1)C1CCCN(S(=O)(=O)c2ccccc2)C1 (configuration not stated)	inconclusive [inhibitor, partial curve, poor fit]	
NC(=S)N/N=C/c1ccccc1	inactive	

SMILES	Potency	activity change, negative = inhibition
O=C(CSc1c2c(nc3ccc(Cl)cc13)CCCC2)NCc1ccco1	inconclusive [inhibitor, single point]	
O=C(Nc1ccc(F)c(Cl)c1)C1CCCN(c2ncnc3onc(-c4ccc(F)cc4)c23)C1 (configuration not stated)	active: 50.1 µM	
Cc1ccc(S(=O)(=O)CCC(=O)Nc2sccc2C#N)cc1	active: 44.7 µM	
CCOc1ccc(C(=O)OCC(=O)NC(C)C)cc1	inactive	
O=C(NCc1ccco1)c1cc(-c2cccnc2)nc2ccccc12	inconclusive [inhibitor, partial curve]	
CC(C)CN(C(=O)C1CC1)c1c(N)n(Cc2ccccc2)c(=O)[nH]c1=O	inconclusive [inhibitor, single point]	
O=C(Cn1c(=O)n(Cc2ccc(C(=O)NCc3ccccc3Cl)cc2)c(=O)c2ccccc21)Nc1ccc(F)cc1	inactive	
Cc1ccc(C(=O)NC(N(C)C)C(Cl)(Cl)Cl)cc1 (configuration not stated)	inconclusive [inhibitor, partial curve]	
CNc1oc(C)nc1S(=O)(=O)c1ccccc1	active: 1.58 µM	
CC(=O)NC1=C(NC2CCS(=O)(=O)C2)C(=O)c2ccccc2C1=O (configuration not stated)	active: 0.708 µM	
COC(=O)c1ccc(OCC(=O)c2ccccc2)cc1	inactive	
N/C(=N\OC(=O)Cc1ccc([N+](=O)[O-])cc1)c1ccc([N+](=O)[O-])cc1	inconclusive [inhibitor, single point]	
Cc1cccc(C)c1N1CCN(C(=O)Cn2cncn2)CC1	inconclusive [inhibitor, single point]	
O=S(=O)(NCC1CCCN(Cc2ccccc2O)C1)c1cccc2cccnc12 (configuration not stated)	inconclusive [inhibitor, full curve, poor fit]	
O=C1NC(=O)N(Cc2ccccc2Cl)C(=O)/C1=C/N1CCOCC1	active: 3.55 µM	
COc1cccc(C2=NO[C@@H]3C(=O)N(c4ccc5c(c4)OCCO5)C(=O)[C@H]23)c1OC	active: 39.8 µM	
O=c1oc2ccccc2c(N2CCCCC2)c1CN1CCCCC1	active: 17.8 µM	
COc1cccc(CNC(=O)c2sc3nc[nH]c(=O)c3c2C)c1	inactive	
Cn1c(SCc2ccccc2)nnc1C1CCCNC1 (configuration not stated)	active: 44.7 µM	
CCCn1nc(NC(=O)COC)c2cc3cccc(C)c3nc21	inactive	
O=C(Nn1c(SCc2ccccc2F)nc2ccsc2c1=O)c1ccccc1	inactive	
COC(=O)C1CCN(C(=O)c2oc3c(Cl)cc(C)cc3c2C)CC1	inconclusive [inhibitor, partial curve]	
Cc1ccccc1CS(=O)(=O)c1ccc(C(=O)N2CCOCC2)cc1[N+](=O)[O-]	inconclusive [inhibitor, full curve]	
CC(N=Cc1cccc(O)c1O)c1ccccc1 (configuration not stated)	active: 5.62 µM	
COC(=O)c1ccc(CSc2nc3ccc(Cl)cc3[nH]2)o1	inconclusive [inhibitor, partial curve]	
